# Measured values: PubChem BioAssay (Tox21)
# The inconclusive results got no clear call from the source; some entries with a clear call stand among them for comparison. Potencies of inconclusive entries are left out as doubtful fits. Calls of active or inactive are those of the source. Unless noted, calls come from the whole dose curve; as a rule, active = well fitted curve in the direction sought with a large enough effect in the repeat runs; inconclusive = weak or mixed curves; inactive = no such curve, though single readings can be large; an effect the other way counts as inactive or inconclusive.
# What was measured:
# [1] = qHTS assay to identify small molecule agonists of the sonic hedgehog signaling (Shh) pathway - cell viability counter screen (AID 1259366); note: nearly all actives have a fitted effect of over 50% in size
# In short: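 Cytotoxicity counter screen: CellTiter-Fluor reagent added after 23 h compound exposure, then 1 h at 37C and fluorescence read. Cells were 3T3 Gli1-Luc, seeded 2,000 per well and dosed 4 h post-plating.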
# [2] = qHTS assay to identify small molecule antagonists of the sonic hedgehog signaling (Shh) pathway - cell viability counter screen (AID 1259367); note: nearly all actives have a fitted effect of over 55% in size
# In short: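 Viability was read by CellTiter-Fluor fluorescence in the same wells, reagent added 23 hr into compound treatment and incubated 1 hr at 37C. The 3T3 Gli1-Luc reporter cells (2,000/well) received conditioned medium after compound and ran 24 hr.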
# [3] = qHTS assay to identify small molecule antagonists of the sonic hedgehog signaling (Shh) pathway (AID 1259369; calls by dose curve; note: nearly all actives have a fitted effect of over 45% in size)
# In short: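 Read-out is luminescence from a firefly luciferase gene controlled by the Gli1 response element, in 3T3Gli1-Luc cells pre-incubated 4hr then exposed to compounds and conditioned medium for 24hr.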
# [4] = qHTS assay to identify small molecule agonists of the sonic hedgehog signaling (Shh) pathway (AID 1259368; calls by dose curve; note: nearly all actives have a fitted effect of over 15% in size)
# In short: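 Following a 24 hr incubation with DMSO-dissolved compounds at 37 C, 5% CO2, Gli1-Luc NIH/3T3-derived cells received luciferase reagent for 30 min at room temperature prior to luminescence measurement.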
# Potency is the fitted concentration of half-maximal effect; tags give direction and shape of the fitted curve.
compound,measurement,setting,value
Cc1ccc(Cl)c(N)c1Cl,Potency,[1],"inconclusive [cytotoxic, single point]"
CC[C@H]1OC(=O)[C@H](C)[C@@H](O[C@H]2C[C@@](C)(OC)[C@@H](O)[C@H](C)O2)[C@H](C)[C@@H](O[C@@H]2O[C@H](C)C[C@H](N(C)C)[C@H]2O)[C@](C)(O)C[C@@H](C)C(=O)[C@H](C)[C@@H](O)[C@]1(C)O,Potency,[1],"inconclusive [cytotoxic, partial curve]"
CC(=O)OC(C)c1ccccc1 (stereo unspecified),Potency,[1],inactive
CNS(=O)(=O)c1cc(C(=O)N2CCC(CCN3C4CCC3CC(n3c(C)nc5ccccc53)C4)(c3cccc(F)c3)CC2)c(Cl)cc1F (stereo unspecified),Potency,[1],"inconclusive [cytotoxic, full curve]"
C=C[C@H]1CN2CC[C@H]1C[C@@H]2[C@@H](O)c1ccnc2ccc(OC)cc12,Potency,[1],inconclusive [cytotoxic]
same,Potency,[2],"inconclusive [cytotoxic, partial curve]"
CCCCC/C=C\C=C\C(=O)OCC,Potency,[1],"inconclusive [cytotoxic, single point]"
same,Potency,[2],inconclusive [cytotoxic]
same,Potency,[3],"inconclusive [inhibitor, single point]"
O=C(CC(=O)c1ccccc1)c1ccccc1,Potency,[1],"inconclusive [cytotoxic, single point]"
same,Potency,[4],"inconclusive [activator, partial curve]"
